Measurements from PMC5836133.
This is one part of the list. At the low end of the ranking, values are background and their order means little.

What follows are sequences tested on T1, GST-NbGlk1(82-244) (assay: protein-binding microarray). Conditions: NbGlk1 is a Golden2-like transcription factor of Nicotiana benthamiana; high values mean tight binding; most listed sequences are background and not binding sites; double strand, one strand shown.
T1 sequence: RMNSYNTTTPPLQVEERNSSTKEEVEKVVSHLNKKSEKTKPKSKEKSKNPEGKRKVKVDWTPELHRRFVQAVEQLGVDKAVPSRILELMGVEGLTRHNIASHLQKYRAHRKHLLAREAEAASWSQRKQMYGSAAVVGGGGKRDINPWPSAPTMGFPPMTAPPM
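Note: rank-based score ranging −0.5 to +0.5 with E above 0.45 taken as significant binding.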

Row | Sequence | binding signal [E-score]
1 | ATTTTATG | 0.188
2 | ATTAGGCA | 0.108
3 | AACCGGTT | -0.0854
4 | AGGCCTAA | -0.223
5 | AAGTGCCC | -0.14
6 | ACGGTGGA | 0.0435
7 | CACTGTGC | -0.287
8 | ACTTCTGC | -0.166
9 | ACCGATCC | 0.0708
10 | AAATGAAT | 0.257
11 | AGCGTGAG | -0.228
12 | AGCGCCAC | -0.261
13 | AAGGTCGA | -0.0622
14 | AAAATCAC | 0.36
15 | CACTGAAC | -0.0448
16 | AACCGCTC | -0.142
17 | CACGATAA | 0.0777
18 | AGCAAGTA | 0.0349
19 | AAACTAAT | 0.0756
20 | ATTGGGTC | -0.0462
21 | AGGATACA | 0.037
22 | AGAATGTG | 0.118
23 | ACGTAAAT | 0.179
24 | AACTTAAA | 0.162
25 | ATGGGGGA | -0.0922

Row | Sequence | binding signal [E-score]
26 | AGGCTACT | -0.318
27 | ATTCTCGG | 0.229
28 | AACGACGA | -0.0854
29 | ATACACTA | 0.0993
30 | ATACGCGG | 0.166
31 | AATTCTGT | 0.223
32 | ACCAGTTC | -0.264
33 | AGGTCTGA | -0.032
34 | AGGTGTAC | -0.119
35 | ATCTCCTA | 0.337
36 | AACATCGG | 0.0869
37 | AGGGGACT | -0.341
38 | AGCGGGAC | -0.172
39 | AAGGCGAT | 0.149
40 | ATGGCAGG | -0.146
41 | AGACGGCC | -0.335
42 | AATCCAAT | 0.408
43 | ACGGATTA | 0.312
44 | ACCTCAGT | -0.208
45 | ACGACGGC | -0.168
46 | CACCACAG | -0.0322
47 | ACATGTTC | -0.0554
48 | AAAACTCT | -0.177
49 | AGAGAATA | 0.243
50 | ATGGACAA | -0.0467

Row | Sequence | binding signal [E-score]
51 | ACACGTCT | -0.129
52 | ATCTTTTG | 0.24
53 | ACCTGACT | -0.305
54 | ATTCGTCA | 0.199
55 | AAAGACCC | -0.261
56 | ACCACATC | 0.00906
57 | AAACCCGG | -0.09
58 | ACTCTCCT | -0.108
59 | ATGGCGAA | -0.0345
60 | ATAGAATC | 0.397
61 | ATGTAGAG | 0.0493
62 | CACAAATA | 0.207
63 | ACGTCATC | -0.0805
64 | AGTAAAAA | 0.149
65 | ATGTCATG | 0.0242
66 | AAATGCAT | 0.0634
67 | AATAGGTC | -0.109
68 | AAATAGCC | -0.0355
69 | AACGGAAT | 0.285
70 | CAATTTCA | 0.182
71 | CAACCAAC | -0.0866
72 | ACACTTCA | -0.0144
73 | CAAACCGC | -0.118
74 | AAACACGC | -0.105
75 | AAGCGCTT | -0.0684

Row | Sequence | binding signal [E-score]
76 | AATGATCT | 0.108
77 | AGTCCATA | -0.118
78 | ACGCACGC | -0.0789
79 | AAGTTACT | -0.0417
80 | AAACTCCT | -0.141
81 | CACCGGAG | -0.0961
82 | CAACAAAC | 0.13
83 | AACCTCCG | -0.312
84 | AACTATAT | 0.0441
85 | CACATACA | 0.185
86 | AAACTCAA | 0.138
87 | ACGCGTTA | -0.0152
88 | AGCCCCGA | -0.118
89 | AACAACAG | -0.125
90 | AAGGGGCT | -0.307
91 | ACGCGCTA | -0.0689
92 | ACTTGCGC | 0.0185
93 | AGGAGTTC | -0.0812
94 | ATGAAATA | 0.184
95 | ACTGATTA | 0.264
96 | ATGATGTA | 0.0732
97 | ACAAACTC | -0.0448
98 | AGGAGCCT | -0.391
99 | AGGCTGCG | -0.232
100 | AGATGAAC | -0.0693

Row | Sequence | binding signal [E-score]
101 | ATACCCGG | -0.0781
102 | ACACTCAC | -0.108
103 | AACCTGAG | -0.0478
104 | ACCGTCCA | -0.1
105 | ACGTTGTA | -0.038
106 | AGAGCCAG | -0.169
107 | AGAATTAT | 0.127
108 | ATCCCCAC | 0.195
109 | ATCTCATG | 0.318
110 | ACCCAACG | -0.0017
111 | ATGCGTCC | -0.192
112 | ACGGGTAC | -0.213
113 | ATAGCATC | 0.0837
114 | ATAGTAGG | 0.0649
115 | ATGATACG | 0.162
116 | ATACCAGA | -0.0668
117 | ACCCCGAG | -0.174
118 | AGTGAGAC | -0.138
119 | AAGTTGAC | 0.0279
120 | AGAACCTC | -0.216
121 | AGACCTTC | -0.266
122 | AAGGTGTG | -0.129
123 | ACGCGCAT | 0.00943
124 | ACGTTCGC | -0.177
125 | ATAAGAAT | 0.299

Row | Sequence | binding signal [E-score]
126 | AATTACTA | 0.153
127 | ATGTCTGG | -0.186
128 | AACAACAT | 0.0487
129 | AGATCATA | 0.127
130 | ATTTAAGA | 0.236
131 | CAACACGG | -0.0848
132 | CACGATCC | 0.194
133 | ATCGCGAT | 0.424
134 | AGTACGAG | 0.0135
135 | ACACAGCT | -0.119
136 | CAGATGAG | -0.151
137 | AGGAAACA | -0.00589
138 | ACATCAGC | -0.0142
139 | AAAAAATC | 0.439
140 | ACTGGAGG | -0.105
141 | ATAAAAGG | -0.13
142 | AAAGGATC | 0.182
143 | AGATCCGG | 0.291
144 | AAACAAGT | 0.0342
145 | AGCTGCTA | -0.298
146 | ACACGAAG | -0.0851
147 | ACCCTGTC | -0.287
148 | ACCAGGCA | -0.305
149 | ACTGTTTA | -0.0696
150 | CAAAAGTC | -0.123

Row | Sequence | binding signal [E-score]
151 | ATCGCAGG | 0.0895
152 | AACTTATG | -0.0125
153 | AAACGCTT | -0.0618
154 | CACGTGGA | 0.0123
155 | AGCCACAG | -0.195
156 | AGGACCAC | -0.235
157 | AACGGGGA | -0.0842
158 | ACCAGGAC | -0.204
159 | ACTCGGTC | -0.191
160 | ACCCGGTG | -0.181
161 | ACAAAGAC | -0.00264
162 | AACTTTTC | 0.0426
163 | ACAACAGG | -0.0462
164 | ACGACACA | -0.176
165 | ATTTACCC | 0.0626
166 | ACTCCCCT | -0.183
167 | AAAGTATT | 0.0387
168 | ACAAAACG | -0.0521
169 | AGCTGTAT | -0.00942
170 | ATCGCCGG | 0.102
171 | ACGAAGGA | -0.0776
172 | ACTAGCGC | -0.222
173 | ACTATTTG | 0.113
174 | ATCTGACA | 0.23
175 | ATTCCCCG | 0.32

Row | Sequence | binding signal [E-score]
176 | AGTTCCTA | -0.0468
177 | AAGACATA | -0.0176
178 | AAATACCT | 0.116
179 | ACATCTTG | -0.0609
180 | ACACGTAG | 0.0256
181 | ACTGCTGG | -0.112
182 | CACCTAGG | -0.103
183 | ATAGTCAT | -0.146
184 | AGTCCTTA | -0.168
185 | ACTCATAC | -0.0267
186 | ATGCTTCA | -0.16
187 | AGAAAAGG | -0.0175
188 | AACGGAAG | -0.166
189 | ACGTCTAA | 0.0547
190 | AACTACAC | -0.0552
191 | CACCTGGG | -0.31
192 | AATGAGCC | -0.221
193 | CACGAGTA | -0.00253
194 | ACTATACT | -0.0777
195 | ATGCAAAC | -0.0886
196 | AAGATTCC | 0.46
197 | ACAACAGA | -0.00974
198 | ATAGTACC | -0.25
199 | AAGCGATC | 0.294
200 | ATCAAAAT | 0.268

Row | Sequence | binding signal [E-score]
201 | ATGTCACC | -0.127
202 | AGCAATTG | 0.0761
203 | AGCATGTG | -0.0902
204 | ACGAAGGG | -0.223
205 | AAATGGAC | -0.136
206 | AATCGCCT | 0.225
207 | ACATTGCT | -0.0139
208 | ATGCCCTC | -0.302
209 | ACAATCCC | 0.276
210 | CAGCCATC | -0.315
211 | AGAACAAC | -0.0788
212 | AACTTAGC | 0.035
213 | ACTTGCTC | -0.089
214 | ATGAGAAA | 0.109
215 | CAATGGTA | -0.0913
216 | ACAATATG | 0.083
217 | AATAGGCA | -0.194
218 | AGCGATCA | 0.185
219 | ATGCGTGG | -0.31
